Measured values published in the RNAGym collection of RNA variant scans (doi:10.7554/elife.90254).
The source gives no read counts; variants with many changes may rest on few reads.

B1: LINE1-mini (parent)
chain: GGCAGAGCUCAACACAGCGUGGCAAAGUGGCUGUGGCUAGACUGCC

Variants of: B1
Assay: self-cleavage, relative activity (ratio to wild type); higher = more cleavage; in vitro, sequencing; the parent is a self-cleaving ribozyme

Variant | self-cleavage
G1C C3A C13U A16G G22U U43A | 0.01
G1A C13A C23A G33A G35A | 0.06
G1A C3G C10A C23A C37U C42A | 0
G1A G19A U38C | 2.83
G1A G5C A14C U20A C46U | 0.04
G1A C13G G35U A39C | 0.18
G1A G17U C23U A26G | 0.08
G1C C3A C13U G40U | 0.14
G1A A14C G35A | 0.01
G1A A26G G27C G35U G40U | 0.13
G1A G2A A14C C23U C31U U43G C46G | 0.02
G1A C8A A16C G30U U32C C42G | 0.69
G1A C18A A26U G30A A41C | 0.14
G1A C13U A39U | 0.07
G1A G17C U28A | 0.62
G1C C3A A14G C23G C31U | 0.07
G1A C3U C15G A25C G44U | 0.06
G1A C15A A41C C46A | 0.03
G1C A6C U20A | 0.03
G1C A4U C15U C18G G22C C37U | 0.01
G1C A4C C8A C10A A25C G44A | 0.18

Variant | self-cleavage
G1A C3G G21A A24U A39G | 0.42
G1A A16C A26G C46A | 0.06
G1A A4C G17C C18G | 0.09
G1A A12U G27C C37A C45A | 0.02
G1A C3A U32C U38G | 0.41
G1A G19A G22U C23A U28A A41C | 0.06
G1A A4C A6C U9G | 0.05
G1A A16U G22U C42A | 0.05
G1A G17C A39G C46A | 0.09
G1A C8A U32G | 0.52
G1A U32A C37U C46U | 0.04
G1A U9C G22A A26U U34C | 0.07
G1A G7C G17C | 0.71
G1A C3U G40U | 0.35
G1C A14U U32G | 0.01
G1C A4U G5A C8G U38A | 0.02
G1A U20A C37A | 0.05
G1A G22U U43C | 0.14
G1A A12C G17U G27C | 0.04
G1A C10U C42G | 0.09
G1A C23U C37G | 0.01

Variant | self-cleavage
G1C A6C U9G G30C G35A | 0
G1A G17A U38G G40A | 0.01
G1A G2A C15G G36U | 0.21
G1C A4C A11C A12U U32G U34A | 0.01
G1A C3G A14U A24G | 0.26
G1A G29C U43G | 0
G1A G5U G44A | 0.08
G1A A6G C42U | 0
G1C A12G G35U | 0.01
G1A C8U C10U G36C | 0.42
G1A C8U A14U U43C | 0.03
G1C A14U C42A | 0.01
G1A C8U U28A | 1.1
G1C A12G A25U C42A | 0.02
G1C A16U U32A | 0.01
G1C A4U G21C A24U | 0.02
G1C A6G G22A A39G C46U | 0.01
G1A U9G G44U C46U | 0.16
G1A U9C U38A | 0.05
G1A A4U A14C A24C C37G U38C | 0.01
G1A U9C G19C G22A G33A A41C C45G | 0

Variant | self-cleavage
G1A U9A A24U G27C G36A | 1.84
G1C A25C U32C G33C G35C | 0.01
G1A A14U C18U G21U | 0.14
G1A A4U C13U A14G | 0.11
G1A C31G A39U G40C | 0.03
G1A G5U C15A G27A G29U C37G | 0.01
G1A G2U C3U A16U G36C G44C | 0.01
G1A G7C A12U G21A G22C U43C | 0.07
G1C A4C U32C G35U C42A | 0.02
G1A G19U A24G U28C | 0.1
G1A C15A A25U U28A A41U | 0.06
G1A A16U C46U | 0.08
G1A C3U G21C | 0.21
G1A A4C U34A | 0.03
G1C A12U A25C U43C | 0.03
G1A A6C U9G G44C C46A | 0.01
G1C C3A G5U G29C U34A | 0.06
G1A G7A A24U U28A G40C U43G | 0.06
G1A G7U G19U G22U C37U C46A | 0.02
G1A G17A U20G U34A U43A | 0.04
